Measurements from PubChem BioAssay (NCATS).
Several values for one entry are separate records, joined by “and”; a condition that tells them apart may be missing. Equal values may be shown once. The shares of active, inactive and inconclusive entries below differ from those in the screen. Potencies of inconclusive entries are doubtful fits and often do not repeat. Activity calls are given as the source filed them. The call rests on the fitted dose curve; in most records, active means well fitted cell-killing curve with a large enough effect; inconclusive means small, poorly fitted or top-dose-only effect, or effect the other way; inactive means no such curve, though single readings can be large or run the other way.
Potency means the concentration at half of the fitted maximal effect; tags describe the fitted curve by direction and shape.

Assay: Viability qHTS for spleen associated tyrosine kinase inhibitor (SYKi) naive MV4-11 cells (AID 1963823); further: nearly all actives have a fitted effect of over 40% in size
Conditions: MV4-11 AML viability, CellTiter-Glo luminescence, 72 h; viability (% of control): at 45 µM (top of the series)
Outline: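 Viability of MV4-11 AML cells lacking prior SYK inhibitor exposure is scored by CellTiter-Glo luminescence following 72 hr compound incubation at 37 C, 5% CO2, seeded at 500 cells per well.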
With `CCCCC(CC)CN1CN(CC(CC)CCCC)CC(C)(N)C1` (stereo not given) the Potency was inconclusive: 0.0266 µM [cytotoxic, full curve].
With `CC1CC(OC(=O)c2ccccc2O)CC(C)(C)C1` (stereo not given) the Potency was inconclusive: 0.596 µM [rising, partial curve, poor fit].
For `O=C(CCCN1CCN(c2ccccn2)CC1)c1ccc(F)cc1`, the Potency was inconclusive: 11.9 µM [cytotoxic, partial curve, poor fit] and inconclusive: 18.4 µM [cytotoxic, single point].
With `COc1ncc(Nc2ncc([C@H](C)N3CCN(S(C)(=O)=O)CC3)cc2-c2nc(C)nc(N)n2)cc1F` the Potency was inconclusive: 32.6 nM [cytotoxic, full curve, poor fit] and inconclusive: 2.63 µM [cytotoxic, partial curve].
In the case of `NC(N)=N/N=C/c1c(Cl)cccc1Cl`, the Potency was inconclusive: 16.8 µM [cytotoxic, partial curve].
In the case of `Cc1onc(-c2ccccc2)c1C(=O)Cl`, the “viability (% of control)” value was inactive: 70.2%.
With `CN1CCC(N(Cc2cccs2)c2ccccc2)CC1` the Potency was inconclusive: 23.1 µM [cytotoxic, partial curve].
In the case of `CC(C)(O)c1ccccc1CC[C@@H](SCC1(CC(=O)O)CC1)c1cccc(/C=C/c2ccc3ccc(Cl)cc3n2)c1`, the Potency was “inactive and inconclusive: 18.4 µM [cytotoxic, single point]”.
With `Cc1c(C(=O)N2CCOc3ccc(-c4ccc(N)nc4)cc3C2)ccc(S(C)(=O)=O)c1F` the Potency was inconclusive: 2.06 µM [cytotoxic, full curve] and inconclusive: 1.86 µM [cytotoxic, full curve].
For `CCC(C(=O)NC(=O)NC(C)=O)c1ccccc1` (stereo not given), the “viability (% of control)” value was inactive: 107%.
In the case of `O=C1NCCN1CCN1CCC(c2cn(-c3ccc(F)cc3)c3ccc(Cl)cc23)CC1`, the Potency was active: 0.668 µM.
In the case of `CCOC(=O)N1CCC(Nc2ccc(Cl)cc2N)CC1`, the Potency was inconclusive: 13.3 µM [cytotoxic, partial curve, poor fit].
With `Cc1c(-c2ccc(-c3ccccc3F)cc2)nc2ccc(F)cc2c1C(=O)O` the Potency was active: 0.148 µM.
With `CN1CCN(c2ccc(Nc3ncc4cc(C#N)c(=O)n(C5CCCC5)c4n3)cc2)CC1` the Potency was inconclusive: 0.105 µM [cytotoxic, full curve].
In the case of `CCOCOC[C@H](C[C@H](C)C(=O)NO)NC(=O)c1ccc(Oc2ccccc2)cc1`, the Potency was inconclusive: 23.5 µM [cytotoxic, partial curve].
In the case of `Cc1[nH]nc2ncc(C(=O)N3CCC[C@H]3c3ccc(Cl)cc3)cc12`, the Potency was active: 5.25 µM.
With `CCCCCC(=O)O[C@]1(C(C)=O)CC[C@H]2[C@@H]3CCC4=CC(=O)CC[C@]4(C)[C@H]3CC[C@@]21C` the Potency was inconclusive: 7.5 µM [cytotoxic, partial curve].
With `CN(Cc1ccccc1)C(=O)c1ccc(S(=O)(=O)Nc2ccccc2)cc1` the Potency was inconclusive: 18.6 µM [cytotoxic, partial curve].
With `CCOC(=O)C1=C(C)NC(C)=C(C(=O)OC)C1c1cccc([N+](=O)[O-])c1` (stereo not given) the Potency was inconclusive: 33.5 µM [cytotoxic, single point].
For `CCCc1ccc(OCC(=O)N2CCN(C(=O)COc3ccc(CCC)cc3OC)CC2)c(OC)c1`, the “viability (% of control)” value was inactive: 65.5%.
In the case of `C[C@@H](c1ccc2nccn2c1)n1nnc2ncc(-c3cnn(C)c3)nc21`, the Potency was inconclusive: 7.31 µM [cytotoxic, partial curve].
In the case of `Nc1c(NC/C=C\COc2cc(CN3CCCCC3)ccn2)c(=O)c1=O`, the “viability (% of control)” value was inactive: 95.2% [at 17.3 µM].
With `Clc1ccc(Cn2c(CN3CCCC3)nc3ccccc32)cc1` the Potency was inconclusive: 15 µM [cytotoxic, partial curve] and inconclusive: 5.02 µM [cytotoxic, partial curve, poor fit] and active: 14.8 µM.
In the case of `COCc1c(C(C)C)nc(C(C)C)c(/C=C/[C@@H](O)C[C@@H](O)CC(=O)O)c1-c1ccc(F)cc1`, the Potency was active: 0.168 µM.
For `CO/N=C(/C(=O)N[C@@H]1C(=O)N2C(C(=O)O)=C(Cn3nnc(C)n3)CS[C@H]12)c1csc(N)n1`, the Potency was inconclusive: 0.0009 µM.
In the case of `CCCCCC[C@@H](CCC)C(=O)O`, the “viability (% of control)” value was inactive: 96.6%.
In the case of `CS[C@H]1SC[C@@H]2C(=O)N(C)[C@H](C(C)C)C(=O)OC[C@H](NC(=O)c3cnc4ccccc4n3)C(=O)N[C@H](C)C(=O)N(C)[C@H]1C(=O)N(C)[C@H](C(C)C)C(=O)OC[C@H](NC(=O)c1cnc3ccccc3n1)C(=O)N[C@H](C)C(=O)N2C`, the Potency was inconclusive: 0.0013 µM [cytotoxic, full curve].
For `CCCCCC1Nc2cc(C(F)(F)F)c(S(N)(=O)=O)cc2S(=O)(=O)N1` (stereo not given), the Potency was inconclusive: 0.0009 µM.
For `O=C(c1ccc(F)cc1)C1CCN(CCn2c(=S)[nH]c3ccccc3c2=O)CC1`, the Potency was inconclusive: 21.1 µM [cytotoxic, single point].
With `O=C(CCCN1CCC(O)(c2ccc(Br)cc2)CC1)c1ccc(F)cc1` the Potency was inconclusive: 18.8 µM [cytotoxic, single point].
With `O=C(Nc1ccc(C(=O)O)c(O)c1)c1ccccc1` the Potency was inconclusive: 0.0009 µM.
For `CN(C)CCCN1c2ccccc2CCc2ccccc21`, the Potency was inconclusive: 13.3 µM [cytotoxic, partial curve].
For `Cc1onc(-c2ccccc2)c1-c1ccc(S(N)(=O)=O)cc1`, the Potency was inconclusive: 21.1 µM [cytotoxic, partial curve, poor fit] and inconclusive: 13.2 µM [cytotoxic, partial curve].
In the case of `Cc1ccc(Nc2nnc(Cc3ccncc3)c3ccccc23)cc1Br`, the Potency was active: 14.8 µM.
With `C[C@@H](O)[C@H](N)C(=O)O` the Potency was inconclusive: 16.4 µM [cytotoxic, single point].
For `COc1ccc(S(=O)(=O)Nc2cc(-c3csc(C#N)c3)ccc2C)cc1`, the Potency was active: 0.0833 µM.
For `C/C=C1\[C@H]2C=C(C)C[C@]1(N)c1ccc(=O)[nH]c1C2`, the “viability (% of control)” value was inactive: 93.2%.
In the case of `CCCCOc1cc(C(=O)NCCN(CC)CC)c2ccccc2n1`, the Potency was inconclusive: 33.5 µM [cytotoxic, single point].
For `Cc1cc(NS(=O)(=O)c2ccc(N)cc2)no1`, the “viability (% of control)” value was inactive: 83.1%.
In the case of `NCCNc1cccc2ccccc12`, the Potency was inconclusive: 11.9 µM [cytotoxic, partial curve].
